In all, about 150,000 compounds went through this assay and about 540 (0.36%) showed an effect of 50% or more. This is one part of the list.
test system: Plasmodium falciparum; assay: Primary screen in NF54 nanoGlo assay, in single point, at 2uM, 72h; a lower Z score goes with more inhibition; type: functional, Erythrocyte; settings: timepoint 72 hour

Structure (SMILES) | % Inhibition | Z score
Cc1ccccc1[C@H]1CCCN(Cc2ccnc(C(C)C)n2)C1 | 2% | -0.43
CCCN(CC(=O)N1CCn2cccc2[C@H]1c1ccccc1F)C(=O)c1ccc(CC)cc1 | -2% | 0.18
Cc1csc(NC(=O)Cc2cnn(-c3ccccc3)c2)n1 | -3% | 0.32
CN(Cc1ccncc1)Cc1ncccc1C(F)(F)F | -2% | 0.18
Cc1cnc(C(=O)N(c2ccccc2)[C@H]2CCOC2)cn1 | 32% | -3.58
CCN(C(=O)c1cc(S(=O)(=O)N(C)Cc2ccccc2)ccc1Cl)[C@H]1CCS(=O)(=O)C1 | -1% | 0.08
CCN(C(C)=O)c1nc2ccccc2n(CC(=O)Nc2cccc(C(C)=O)c2)c1=O | -6% | 0.97
CCc1cc(NCC2CCN(C(=O)C(C)C)CC2)nc(N(C)C)n1 | 4% | -0.81
O=C(Cc1ccc(-c2ccccc2)cc1)N1CCc2nncn2CC1 | 7% | -0.81
CCc1ccc(CN2CCN(S(=O)(=O)c3c(N)noc3C)CC2)s1 | -11% | 1.15
CCN1CCN(C(=O)Cn2nnc3ccccc3c2=O)CC1 | -1% | 0.07
c1ccc(CNCc2cc3cc4c(cc3nc2OCC2CCCCC2)OCO4)nc1 | -6% | 1.09
C#CC(NC(=O)NC(COC)C1CCCO1)C(C)C (stereo not given) | -1% | 0.24
C[C@H]1CCn2c(nc3cc(C(=O)NCc4ccc5c(c4)OCO5)ccc32)C1 | -13% | 1.8
CCc1nc2cc(C(=O)N(CCOC)C(C)C)cc(NC(=O)c3ccccc3OC)c2n1C | 12% | -1.61
COCC(=O)N1CC[C@@]2(O)CCN(Cc3ccc(F)c(F)c3)C[C@H]2C1 | -4% | 0.69
CNC(=O)C[C@H](C)N(C)Cc1cc2ccccc2n1C | -5% | 0.63
CC(=O)NC[C@@H]1CC(F)(F)CN1C1CN(Cc2ccc(Cl)cc2)C1 | 10% | -1.18
COc1ccc(-c2nnc(NC(=O)CCc3ccccc3)o2)cc1OC | 2% | -0.41
CCN(C(=O)c1cnc(C)cn1)c1ccccc1C | -1% | 0.14
Cc1cc(NC(=O)CNc2cc(S(=O)(=O)N3CCCCC3)ccc2Oc2ccccc2)no1 | -37% | 4.3
CC(OCC1CC1)C(=O)N(CC1CN(C)CCO1)c1nccs1 (stereo not given) | 6% | -0.87

Structure (SMILES) | % Inhibition | Z score
Cc1nc2ccc(NC(=O)c3snc(O)c3Cl)cc2s1 | 9% | -1.04
CN(C)[C@@H](CNC(=O)Cc1ccc(F)cc1)c1ccsc1 | -4% | 0.46
COCCC1(NC(=O)COc2ccc(F)cc2)CCN(CC2CC2)CC1 | -1% | 0.16
Cc1cc(C)n(C)c(=O)c1C(=O)N1CCn2nc(Cc3ccccc3)cc2C1 | -5% | 0.58
CN(C)Cc1ccc(Oc2ccc(CS(C)(=O)=O)cn2)cc1 | -16% | 1.37
COc1ccccc1-c1nc(CN2CCN(S(=O)(=O)c3ccc(CC(C)C)cc3)CC2)c(C)o1 | -16% | 2.14
Cc1cccc(C(=O)NS(=O)(=O)C(C)C)c1Cl | 2% | -0.34
c1ccc2nc(N3C[C@@H]4CC[C@@H](C4)C3)cnc2c1 | -15% | 1.88
Cc1ccccc1OCC(=O)c1ccc2c(c1)N(Cc1ccc(C(=O)NCC(C)C)o1)C(=O)CO2 | -15% | 1.49
COC(=O)[C@@H](NC(=O)Nc1ccccc1)C(C)(C)C | -4% | 0.65
Cc1cc(NC(=O)[C@H](C)S(=O)(=O)c2ccccc2Cl)on1 | 6% | -1.16
CC(C)Cc1nc(-c2ccc(=O)[nH]c2)n(-c2ccc(F)cc2)n1 | -6% | 0.75
Cn1nccc1CN[C@H]1CCN(c2cccc(OC(F)(F)F)c2)C1 | 0% | 0.07
Cc1cccc(C(=O)N2CCC3(CCC(=O)N([C@H]4CCN(C)C4)C3)CC2)n1 | 4% | -0.57
CCCc1c(C(=O)N(Cc2ccncc2)[C@@H](C)CC)c(=O)cc(C)n1CC | -5% | 1
COc1ccc(OCC(=O)N2CCCC[C@@H]2CCS(=O)(=O)c2ccccc2)cc1 | -6% | 0.67
Cn1c(C(=O)O)ccc1-c1ccc(F)cc1 | 0% | 0.02
COc1cccc(CNC(=O)CCCn2nc(-c3ccccc3)c3ccccc32)c1 | 0% | 0.09
O=C(Cn1cnc2cc3c(cc21)OCCO3)N1CCCCC1 | -8% | 1.3
CCc1noc(C)c1C(=O)N[C@@H](C)c1nncn1C1CCCC1 | -24% | 2.16
COc1cccc(Cn2nc(C(C)(C)C)c(CCC#N)c2O)n1 | -3% | 0.39
Cc1noc(-c2ccco2)c1C(=O)N(C)CCc1ccccn1 | -1% | 0.08

Structure (SMILES) | % Inhibition | Z score
CN([C@H]1CCCc2c1cnn2C)S(=O)(=O)CCN1CCCC1 | 40% | -5.42
Cc1csc(C2(NCCc3c(C)nc4ccccn4c3=O)CCOCC2)n1 | 1% | -0.14
Cc1ccc(CN[C@@H]2COC3(CCC3)C2)nc1C | 3% | -0.45
C[C@@H](CNC(=O)CCS(=O)(=O)N(C)C)c1cccs1 | 2% | -0.26
CC(C)n1ncc2c1[C@@H](NCc1ccc(O)cc1)CCC2 | -8% | 0.86
O=C(NCc1ccccc1)C1CCN(c2nccn3ccnc23)CC1 | -6% | 1.01
Cn1c(CN2CCC[C@H](C(=O)c3ccc4c(c3)OCO4)C2)nc2ccccc21 | 0% | 0
c1ccc(Oc2ccc(CN3CCC(c4nnc[nH]4)CC3)o2)cc1 | -5% | 0.69
CCc1cc2c(cc1[C@H](C)N)C(C)(C)CCC2(C)C | 6% | -0.87
COC(=O)[C@@H]1C[C@@H](O)CN1CCc1ccncc1 | -5% | 0.66
O=C(Cc1ccc[nH]c1=O)c1ccc(F)cc1 | 3% | -0.35
Cc1c(C(=O)N2CCC(C)CC2)c(C(F)(F)F)nn1C1CCN(C)CC1 | -9% | 1.75
O=C(c1cc2c(s1)CC[C@H](C(=O)N1CCCCC1)C2)N1CCCC1 | 28% | -3.22
Cc1sc(NC(=O)C(C)(C)C)c(C(=O)O)c1C | -5% | 0.75
CCCCCOc1ccc(NC(=O)N2CCC3(CC2)CN(C)CCN3C)cc1 | -10% | 1.93
Cn1c(C(F)(F)F)nn(Cc2csc(-c3ccccc3)n2)c1=O | -3% | 0.35
CCCn1ncc(CN2CCc3nc(NC)nc(C(=O)N4CCCC4)c3C2)c1C | -7% | 1.06
COc1ccc(-c2cn3c(C(=O)N4CCC[C@H]4C(N)=O)csc3n2)cc1F | 4% | -0.71
CN(C)C(=O)c1ccc2c(c1)N(CC(=O)N1CCc3ccccc3C1)C(=O)CO2 | 16% | -2.12
Cn1cncc1C(=O)Nc1ccnn1C1CCCC1 | -16% | 3.07
O=C(C[C@@H]1C=CCC1)Nc1cncc2ccccc12 | -8% | 0.79
O=C(CN1C(c2ccc(Cl)cc2)=C[C@@H](c2ccc(F)cc2)n2nnnc21)NCc1ccccc1 | 3% | -0.35

Structure (SMILES) | % Inhibition | Z score
CC(C)(F)c1nc(-c2ccc(N3CCCOC3=O)cc2)no1 | -17% | 3.24
CCC(C)NC(=O)C(C)NC1CCCC(C(F)(F)F)C1 (stereo not given) | -4% | 0.38
O=C1CN(Cc2nc(-c3cccc(Br)c3)c[nH]2)CCN1C1CC1 | -5% | 0.83
O=C(Nc1ccc2[nH]c(=O)[nH]c2c1)[C@@H]1CC=CCC1 | -8% | 1.07
CCNc1nc(NCC)nc(NS(=O)(=O)c2ccc(N)cc2)n1 | -28% | 3.31
CCn1cc(C(=O)Nc2ccc(COC3CCCC3)cc2)c(=O)c2cc(Cl)ccc21 | 10% | -1.15
CNC(=O)Cc1noc(-c2ccc(-n3ccnc3)cc2)n1 | -4% | 0.67
O=C(Nc1nc2n(n1)CCCC2)N1CCC[C@H]1c1cccs1 | -5% | 0.88
CCCc1noc(-c2ccn3c(CC(=O)N4CCCC4)nnc3c2)n1 | -3% | 0.52
CC(C)c1cc([C@@H]2CCCN2Cc2cc(F)ccc2F)on1 | -9% | 1.18
Cn1nc2nc(N3CCC(N4CCCCC4)CC3)nc(-c3cccc(Oc4ccccc4)c3)c2c1N | 19% | -2.46
O=C(Cn1cnc2ccccc2c1=O)Nc1ncccc1O | -7% | 1.42
Cc1ccc(C(=O)NCCNC(=O)c2ccc(C)o2)o1 | -22% | 2.83
CC(NC(=O)N1CCOCC1C1CCCO1)c1cccc(F)c1F (stereo not given) | -10% | 1.77
O=C(NC[C@H]1Cc2ccccc2CN1)c1c[nH]c(C2CC2)n1 | -4% | 0.76
O=C(N[C@@H](Cc1ccccc1)C(=O)O)c1coc(Br)c1 | -15% | 2.21
Cc1cc(CNC(=O)COCc2nc(-c3ccccc3)no2)no1 | -6% | 0.81
CC(=O)N[C@H]1CC[C@]2(C)CC[C@@H]([C@H](C)C(=O)NCc3cccs3)[C@H](O)[C@H]2[C@@H]1C | -7% | 1.1
Cc1cc(C)c2[nH]c(C(=O)N3CC[C@H](N(C)C)C3)c(C)c2c1 | -10% | 1.18

— ChEMBL document CHEMBL4888484, “Replenishing the malaria drug discovery pipeline: Screening and hit evaluation of the MMV Hit Generation Library 1 (HGL1) against asexual blood stage Plasmodium falciparum ,using a nano luciferase reporter read-out” (2022)
